Measured values taken from the supplement of paper PMC12217912.
The other results are listed elsewhere or left out. Sequences were assembled here from the parent chain. Values near 0.05 are background.

B1: TEV protease; numbered along this chain (parent)
chain: MGESLFKGPRDYNPISSSICHLTNESDGHTTSLYGIGFGPFIITNKHLFRRNNGTLVVQSLHGVFKVKDTTTLQQHLVDGRDMIIIRMPKDFPPFPQKLKFREPQREERICLVTTNFQTKSMSSMVSDTSCTFPSGDGIFWKHWIQTKDGQCGSPLVSTRDGFIVGIHSASNFTNTNNYFTSVPKNFMELLTNQEAQQWVSGWRLNADSVLWGGHKVFMVKPEEPFQPVKEATQL

Variants of: B1
Experiment: raw area under fraction-flipped curve 0-4 h after induction (AUC4h, not background-subtracted), DNA-recorder readout of cleavage of the substrate (dimensionless); higher = more cleavage of the substrate by the protease variant
Settings: temperature: 34 °C; time window: 0-4 h after rhamnose induction
Protocol: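 In vivo DNA recorder in E. coli TOP10(DE3) ΔrhaA at 34 °C. Each TEVp single-site mutant (parent TEVp 0) is paired with a single-site variant of the 7-mer TEVs (canonical ENLYFQ|S). The substrate sits between flexible linkers in a Bxb1-sfGFP-TEVs-SsrA fusion, so cleavage stabilises Bxb1 and speeds flipping of a recombination array, read by NGS. The value is the raw area under the fraction-flipped curve over 0-4 h after rhamnose induction (AUC4h), with ≥20 reads per time point. It is not background-subtracted; inactive controls average about 0.047.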
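Note: Bxb1 expression induced with 0.2% (w/v) L-rhamnose at OD600 near 0.5, cultures sampled hourly, flipped fraction per protease–substrate barcode pair counted by paired-end Illumina sequencing.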

Variant	area with substrate ENAYFQS	area with substrate ENCYFQS	area with substrate ENDYFQS	area with substrate ENFYFQS	area with substrate ENGYFQS	area with substrate ENHYFQS	area with substrate ENMYFQS	area with substrate ENNYFQS	area with substrate ENQYFQS	area with substrate ENRYFQS	area with substrate ENSYFQS	area with substrate ENTYFQS	area with substrate ENVYFQS	area with substrate ENYYFQS	area with substrate ENEYFQS	area with substrate ENPYFQS	area with substrate ENIYFQS	area with substrate ENKYFQS	area with substrate ENWYFQS
MGESLFKGPRDYNPISESICHLTNESDGHTTSLYGIGFGPFIITNKHLFRRNNGTLVVQSLHGVFKVKDTTTLQQHLVDGRDMIIIRMPKDFPPFPQKLKFREPQREERICLVTTNFQTKSMSSMVSDTSCTFPSGDGIFWKHWIQTKDGQCGSPLVSTRDGFIVGIHSASNFTNTNNYFTSVPKNFMELLTNQEAQQWVSGWRLNADSVLWGGHKVFMVKPEEPFQPVKEATQL [S17E]	0.0586	0.0671	0.0632	0.0687	0.0714	0.0575	0.0815	0.0379	0.0523	0.0562	0.0585	0.0731	0.0789	0.0589	–	–	–	–	–
MGESLFKGPRDYNPISHSICHLTNESDGHTTSLYGIGFGPFIITNKHLFRRNNGTLVVQSLHGVFKVKDTTTLQQHLVDGRDMIIIRMPKDFPPFPQKLKFREPQREERICLVTTNFQTKSMSSMVSDTSCTFPSGDGIFWKHWIQTKDGQCGSPLVSTRDGFIVGIHSASNFTNTNNYFTSVPKNFMELLTNQEAQQWVSGWRLNADSVLWGGHKVFMVKPEEPFQPVKEATQL [S17H]	0.0715	0.0417	0.0572	0.0652	0.0671	0.0598	0.0921	0.06	0.0616	0.0487	0.0622	0.0518	0.0658	0.0671	0.0522	0.0618	–	–	–
MGESLFKGPRDYNPISKSICHLTNESDGHTTSLYGIGFGPFIITNKHLFRRNNGTLVVQSLHGVFKVKDTTTLQQHLVDGRDMIIIRMPKDFPPFPQKLKFREPQREERICLVTTNFQTKSMSSMVSDTSCTFPSGDGIFWKHWIQTKDGQCGSPLVSTRDGFIVGIHSASNFTNTNNYFTSVPKNFMELLTNQEAQQWVSGWRLNADSVLWGGHKVFMVKPEEPFQPVKEATQL [S17K]	0.0681	0.0653	0.0497	0.0638	0.0583	0.0268	0.0849	0.0484	0.0621	–	0.0726	0.0555	0.0741	0.0603	0.0623	0.0647	0.119	0.0599	0.0999
MGESLFKGPRDYNPISLSICHLTNESDGHTTSLYGIGFGPFIITNKHLFRRNNGTLVVQSLHGVFKVKDTTTLQQHLVDGRDMIIIRMPKDFPPFPQKLKFREPQREERICLVTTNFQTKSMSSMVSDTSCTFPSGDGIFWKHWIQTKDGQCGSPLVSTRDGFIVGIHSASNFTNTNNYFTSVPKNFMELLTNQEAQQWVSGWRLNADSVLWGGHKVFMVKPEEPFQPVKEATQL [S17L]	0.0487	0.0529	0.0838	0.0493	0.0483	–	0.0724	0.0641	0.0581	0.0639	0.059	0.0518	0.0681	–	0.0577	0.0557	0.135	0.0521	–
MGESLFKGPRDYNPISMSICHLTNESDGHTTSLYGIGFGPFIITNKHLFRRNNGTLVVQSLHGVFKVKDTTTLQQHLVDGRDMIIIRMPKDFPPFPQKLKFREPQREERICLVTTNFQTKSMSSMVSDTSCTFPSGDGIFWKHWIQTKDGQCGSPLVSTRDGFIVGIHSASNFTNTNNYFTSVPKNFMELLTNQEAQQWVSGWRLNADSVLWGGHKVFMVKPEEPFQPVKEATQL [S17M]	0.0507	0.0594	0.0594	0.0599	0.0622	0.0584	0.0806	0.057	0.0344	0.0589	0.0679	0.0671	0.0782	–	0.0568	0.05	0.0984	0.063	0.0629
MGESLFKGPRDYNPISNSICHLTNESDGHTTSLYGIGFGPFIITNKHLFRRNNGTLVVQSLHGVFKVKDTTTLQQHLVDGRDMIIIRMPKDFPPFPQKLKFREPQREERICLVTTNFQTKSMSSMVSDTSCTFPSGDGIFWKHWIQTKDGQCGSPLVSTRDGFIVGIHSASNFTNTNNYFTSVPKNFMELLTNQEAQQWVSGWRLNADSVLWGGHKVFMVKPEEPFQPVKEATQL [S17N]	0.0425	0.071	0.0485	0.0489	0.0408	0.0563	–	0.0593	0.0616	0.0456	0.058	0.0372	–	0.0522	0.0625	0.0654	–	0.0617	0.0609
MGESLFKGPRDYNPISRSICHLTNESDGHTTSLYGIGFGPFIITNKHLFRRNNGTLVVQSLHGVFKVKDTTTLQQHLVDGRDMIIIRMPKDFPPFPQKLKFREPQREERICLVTTNFQTKSMSSMVSDTSCTFPSGDGIFWKHWIQTKDGQCGSPLVSTRDGFIVGIHSASNFTNTNNYFTSVPKNFMELLTNQEAQQWVSGWRLNADSVLWGGHKVFMVKPEEPFQPVKEATQL [S17R]	0.0897	0.0668	0.061	0.0558	0.0638	0.0518	–	0.0552	0.0531	0.0597	0.0732	0.0674	0.0699	–	0.0568	–	0.105	–	–
MGESLFKGPRDYNPISVSICHLTNESDGHTTSLYGIGFGPFIITNKHLFRRNNGTLVVQSLHGVFKVKDTTTLQQHLVDGRDMIIIRMPKDFPPFPQKLKFREPQREERICLVTTNFQTKSMSSMVSDTSCTFPSGDGIFWKHWIQTKDGQCGSPLVSTRDGFIVGIHSASNFTNTNNYFTSVPKNFMELLTNQEAQQWVSGWRLNADSVLWGGHKVFMVKPEEPFQPVKEATQL [S17V]	0.0538	0.0594	0.0547	0.0639	0.0583	0.0569	0.0669	0.0567	0.049	0.0489	0.0446	0.0795	0.0864	0.0721	0.0738	0.0848	0.108	0.0607	–
MGESLFKGPRDYNPISSIICHLTNESDGHTTSLYGIGFGPFIITNKHLFRRNNGTLVVQSLHGVFKVKDTTTLQQHLVDGRDMIIIRMPKDFPPFPQKLKFREPQREERICLVTTNFQTKSMSSMVSDTSCTFPSGDGIFWKHWIQTKDGQCGSPLVSTRDGFIVGIHSASNFTNTNNYFTSVPKNFMELLTNQEAQQWVSGWRLNADSVLWGGHKVFMVKPEEPFQPVKEATQL [S18I]	0.061	0.0472	0.0637	0.0636	–	0.0548	0.0794	0.0441	0.0553	–	0.0557	0.0554	0.0627	0.0593	0.0551	0.0514	0.108	–	0
